Results on 167 variants are retold here after the RNAGym collection of RNA variant scans (doi:10.1093/nar/gkz1192).

The source gives no read counts; variants with many changes may rest on few reads.

B1: CPEB3 Ribozyme (parent)
chain: UAACAGGGGGCCACAGCAGAAGCGUUCACGUCGCAGCCCCUGUCAGAUUCUGGUGAAUCUGCGAAUUCUGCUGUAUAUCUC

Variants of B1 are the subject of this data set. The data set is described as follows: self-cleavage, relative activity (ratio to wild type); higher = more cleavage; in vitro, sequencing. In a few lines:
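After error-prone PCR and barcoding, CPEB3 ribozyme mutant libraries were transcribed with T7 RNA polymerase at 37°C for 5 hours, then given 15 min with DNase I before an EDTA stop, and they cleaved during both steps. Reverse transcription with template switching preceded Illumina sequencing. Relative activity divides a variant's cleaved/total read fraction by the unmutated ribozyme's. At least 5 reads were required per variant, and three batches were averaged.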
With A18U A45U U54C U60A U67C U80C, the self-cleavage came to 0.09. For the variant A18G U41C A57G U66C U78C, the self-cleavage turned out to be 0.2.

Regarding A18G G30A A45C A64G, the self-cleavage came out at 0.23.

On to A18G A56G U60C U78A, for which the self-cleavage was found to be 0.23. A18U U41C U49C: the self-cleavage is 0.17.

Turning to A18G A57G A75U, the self-cleavage stood at 0.6. On to A18U A45C A64U U67C, for which the self-cleavage was determined as 0.29.

A18U A20G U80C: the self-cleavage is 0.57.

G19A U41C U58C U66C A75U: the self-cleavage was 0.08.

For A18G A56G U69C U78A U80C, the self-cleavage was 0.84. As for G19A G33A U72C, the figure is 0.07. Consider A18G U60C U72C, for which the self-cleavage turned out to be 0.24. For A18U G24A U80C, the self-cleavage is 0.07. For A18U C34G A45U U48C the value was 0.15; for A18U U48A U66A, 0.15; for A18G G19U U41C A56C, 0.34. Turning to A18U G22C U72C, the self-cleavage was 0.27. As for A18G U49A A77U, the figure is 0.66; as for A18U U69C U80A, 0.64. As for A18G U31C A35U U67G, the figure is 0.04; as for A18G C34A C39G A56G U69A, 0.06; as for A18U C23U A47G U49A A56G, 0.18. For A18U C23U G30A C38U U60C U72A the value was 0.06; for A18G A64G U74C U80C, 0.77; for A18G U58C U78C, 0.11.

Consider A18U A47C A64U, for which the self-cleavage was determined as 0.05. For A18G C62G U78C the value was 0.28; for A18G U25C U31C A45U, 0.17; for A18G U26A A77G, 0.74.

In the case of A18G U31A A47C U72C U78C, the self-cleavage turned out to be 0.36. As for A18U C23U U26C, the figure is 0.22. Turning to A18G U48A U67G, the self-cleavage is 0.18. For A18G A47G A64U the value was 0.11; for A18U A21G A45G U60C U69A, 0.59; for A18G U43C U51A A64G U69G U72C, 0.1. As for A18G U43C U74C, the figure is 0.2; as for A18G U26C A28G, 0.16.

A18G A64G U76C: the self-cleavage turned out to be 0.66. As to A18G U31A U69A, the self-cleavage was found to be 0.18.

For the variant A18G U49C A64U, the self-cleavage was found to be 0.16. As for G19A U25A C34U A57G, the self-cleavage came out at 0.05. Turning to A18U A56G U67C U72C, the self-cleavage was 0.14. For A18U U26G A57G the value was 0.08. Consider A18U C68G U74C, for which the self-cleavage was 0.12. In the case of A18G U51A A64G U72C A75U U76C, the self-cleavage amounted to 0.58. As to G19A A20G C23A A64C, the self-cleavage was 0.13. Turning to A18U U26A A35U, the self-cleavage was 0.21. With A18G U31A A35U U43A A45C U66A, the self-cleavage was determined as 0.17.

A18G U25A A45G U48C U80C: the self-cleavage came out at 0.42. As for A18U U66C U72A, the figure is 0.23; as for A18U U66C U72C, 0.32.

As for A18U C23U U54C, the self-cleavage was 0.28. In the case of A18G U25C U26A U72C, the self-cleavage worked out at 0.12. Regarding A18G U41A C68U, the self-cleavage came to 0.18. As for A18G U31A A35G U67C U78C, the figure is 0.42; as for A18G U26C A35U A47G U48A U49C U66C, 0.05. For A18U C34U A64U the value was 0.11; for A18G C40A U41G U78C, 0.06; for A18G A64G A77G U80C, 0.55.

Consider A18G U69C U72C U80A, for which the self-cleavage turned out to be 1.22.

For the variant A18U A28U C29U A35U U67C, the self-cleavage was 0.07.

For the variant A18U U60C U69A, the self-cleavage is 0.65.

Take A18G A57U U69C: the self-cleavage is 1.06. In the case of A18U A35U A57U, the self-cleavage amounted to 0.11.

As for A18G U58A A65G U67A U72C, the self-cleavage came out at 0.09. For A18U C37U U51C G52A A64C U72A A77U the value was 0.06.

Take A18G U26C A64G: the self-cleavage was found to be 0.13.

In the case of A18G C23G U72A U78C U80A, the self-cleavage was 0.08.

With A18U A20U G46U A47G U78C, the self-cleavage stood at 0.16. A18U G22U U49C A57G U69A: the self-cleavage amounted to 0.08. For the variant A18G U31A U69A U74G, the self-cleavage turned out to be 0.12. Turning to A18G U41C A47G G55U C62A, the self-cleavage is 0.2. For A18U G24U G33A U72A C79A the value was 0.05; for A18U U31C U60C, 0.15; for A18U U41C U58C G61A C79U, 0.18. As for A18U A20U U49A, the figure is 0.47; as for A18U G33U U49C A65G, 0.07.

Consider A18G U41G A64G, for which the self-cleavage amounted to 0.08.

Consider A18G C34U A35G U51A A56G, for which the self-cleavage stood at 0.09. For A18G U26A U60A the value was 0.2; for A18G G46U U72C, 0.46; for A18G U31A U51C U67C U72C, 0.12.

Regarding A18U A45U A47G U60A, the self-cleavage amounted to 0.22. As for A18G U25C A28G U49C A65G U69A, the figure is 0; as for A18G G22A U25C, 0.28; as for A18U A35U U60A, 0.2. As for A18U U25C U54C, the figure is 0.39; as for A18U U25A A28U C59A U78C, 0.07; as for A18G A64G U66C, 0.27. Consider A18U U49C U54C U66C, for which the self-cleavage stood at 0.07. As for A18G U26C C38A, the figure is 0.1; as for A18G A47G U67C U72A, 0.15; as for A18U U25C A65C C68A, 0.17. For A18G U26A U54C U58A, the self-cleavage came out at 0.14. For A18G U25C C32U U80C the value was 0.1; for A18G U25G U51C, 0.34.

With A18G G55C A64C U69G, the self-cleavage came to 0.16. For A18U A20G G63A the value was 0.31; for A18U C27U A45U U49A A64U, 0.05; for A18G U41A U43A, 0.12. In the case of A18G U25C G46U U51C U54A, the self-cleavage came out at 0.26.

As to A18G C39U C71A U76C U80C, the self-cleavage amounted to 0.08.

Regarding A18G U41C U48C U78C, the self-cleavage was found to be 0.27.

As to A18U A20G U72C, the self-cleavage was 0.4. With A18U U26C G36U U72C, the self-cleavage was determined as 0.05.

On to A18U U60C U80G, for which the self-cleavage is 0.28. As to A18U U58C U60G, the self-cleavage amounted to 0.12. For G19A A35C U48C U80A, the self-cleavage was 0.19. As for A18G C32U U41C A56U A75G, the figure is 0.05; as for A18G C27U U31A A56U U60A G61C, 0.09. As for A18G G22A A65G U69A U78G, the figure is 0.06. Consider A18U A20G U41C G63U, for which the self-cleavage was 0.42.

Turning to G19A A20G C39G U60A U69A U80C, the self-cleavage was determined as 0.11.

Consider A18U A45U U48C U51C, for which the self-cleavage is 0.57.

Consider A18G U48C U60C U69C U72C, for which the self-cleavage came out at 0.13. For A18G U25C A35U U51C the value was 0.09; for A18U C37U U41C A57G G63A, 0.22; for A18U U66C U69A, 0.41. As for A18U U31C U41C U60C, the figure is 0.3. For A18G G24A U41G U49C A65G the value was 0.19. Take A18U C23G A45U: the self-cleavage turned out to be 0.23. As for A18U A20U A21G A77G, the figure is 0.16. For A18G A45C A56U the value was 0.14; for A18G U49A U51A U80C, 0.1. For G19A U43C U69C the value was 0.12. Regarding A18U C62U U69A, the self-cleavage is 0.13. For G19A U26C A45G U72C, the self-cleavage came to 0.2. A18G G22U U66C: the self-cleavage worked out at 0.16. Turning to A18U U25C A35G, the self-cleavage came to 0.17. Consider A18U G33U U49A, for which the self-cleavage came out at 0.12.

As for A18U U25A A64U, the self-cleavage worked out at 0.39.

For A18U A35G A64G, the self-cleavage was found to be 0.39.

On to A18G U48A G61C G63A A64G U76A U80C, for which the self-cleavage worked out at 0.03. For A18G A35U U78C the value was 0.15; for A18G U26A A45U, 0.17; for A18U U25C U26A G30A A64G C81A, 0.28.

In the case of G19A G36A U58C, the self-cleavage turned out to be 0.12. As for A18G U26C G53U, the figure is 0.35; as for A18U U43C G73C U74A, 0.13. For A18U A21G A35U U49A U80C the value was 0.24; for A18G U60C U67C U78A, 0.13; for A18U C34G A35G G61C U72C, 0.09.

Regarding A18G U26C U66C, the self-cleavage worked out at 0.3. For A18G C23U U26A U72A the value was 0.05. For A18U U26C A28U C32U A57G U76C U80C the value was 0.03; for A18U U25A U26C C40U, 0.14; for G19A U41C G42U, 0.24. Consider A18G U25A U69C, for which the self-cleavage is 0.18. Consider A18G A45G U76C U78C, for which the self-cleavage turned out to be 0.51. As for A18G U48C U74C, the figure is 0.25; as for A18U A35U C38G, 0.07; as for A18G U72A U80C, 0.83. As to A18U A21G C27G U58C U69A U74G A75U, the self-cleavage is 0.03.

On to G19A A20U U26C A28G U76C, for which the self-cleavage was found to be 0.07. As for A18G A56U U60C A64G U80C, the figure is 0.06; as for G19A U41A U76A, 0.18; as for A18G U26G U66C, 0.19. As for A18G G33U U43A U72G U80A, the figure is 0.03. For the variant G19A A56G U72C, the self-cleavage was determined as 0.28.

On to A18G C37U U49A U66C, for which the self-cleavage worked out at 0.12. As for A18U U43G U76C, the figure is 0.28. For A18U A21G U25C U41G U58C the value was 0.12. As for A18U U41G U49C A65G U66C, the figure is 0.03.

As to A18U C62U A64U A77C, the self-cleavage amounted to 0.25. As for A18U G19U A35U G36A U43C, the figure is 0.08; as for A18G A47G U60C G70U, 0.1. For A18U C23U U48A U51C U54G A65G U72A the value was 0.04.
